Experimental data reported in the supplement of paper PMC11417369.
± gives the standard deviation of the averaged measurements. The list shows a part of the results.

system: PfAP2-EXP AP2 domain (GST-tagged); experiment: gcPBM binding intensity (ln(normalized median fluorescence intensity)); higher = stronger DNA binding
Method in brief: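 DNA-binding domains from P. falciparum, fused to GST and produced in E. coli, were put on an Agilent 4 × 180k double-stranded probe array for 1 h in 1× PBS holding 1% milk, 0.2 mg/ml BSA, 0.5% salmon testes DNA and 0.03% Triton X-100. Probes were primer-extended, 36 bp long and drawn from intergenic genomic regions, with negative controls included. After Alexa488 anti-GST antibody detection and a 488 nm scan, binding intensity was set as the highest Masliner-normalised natural-log median intensity across replicate spots of either probe orientation.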

Sequence | gcPBM binding intensity (ln)
TATATATTAATATACACACACACATATATATATATA [CACACA_site1608] | 10.1 ± 0.33
TTTTTTTTTTTTTGGTTCACACTGAAAAGAGAGATA [GTGCAC_negctrl_site439] | 8.48 ± 0.61
AAAACAAAATAGGGAACACACACATGTCAATATATA [CACACA_site8834] | 8.88 ± 0.41
TTTCAAACTGTTCTCACACACGAAATTAGAAATGAA [CACACA_site4509] | 8.62 ± 0.47
CAATCATGGTTTTACACACACATGCATGTGAAAATT [CACACA_site4870] | 9.3 ± 0.47
TTTTGTTATTTTGAAGTGCACTTTCCACTTAATATA | 9.245 ± 0.035
TCATGTTTTACAAAAACACACAAATGAATATAAACA [CACACA_site4775] | 8.67 ± 0.44
AATAAATAAAAATTATGTACATATATAAAAAATACA [XGTACX_site8581] | 8.77 ± 0.25
TCGAATTTGGAAAGAAGTACATGAAGCCAACATATG [XGTACX_site5222] | 8.91 ± 0.51
TATATACATAGACACCCACACACAAAAAAAAAAAAA [CACACA_site8186] | 8.46 ± 0.64
AAGAATAATAACAAATGTACTTATATAAAGTATTAT [XGTACX_site2336] | 8.52 ± 0.42
TAATTAAATATTTTCCTACAATTAATAAGAAAAGGA [XGTACX_negctrl_site565] | 8.3 ± 0.34
AAATATAATATATGCACACATACATACATATATATA [CACACA_site104] | 8.46 ± 0.22
TTTTCCTTTTTGGAATGTACACATATATATTAAATG [XGTACX_site4700] | 8.29 ± 0.3
CAGCTCTTAAAAATTACACACATATACGCATATATA [CACACA_site3267] | 8.4 ± 0.44
TATTAAGAAGAAAATTCACACATTTGTACCTCTCTT [CACACA_site4822] | 8.22 ± 0.44
TATAAATAGATATATACACACATGAAAATAAATAAA [CACACA_site7228] | 8.73 ± 0.39
GAAAATAGCTAAAATACACACAATTAAAAGTTATTA [CACACA_site7614] | 8.43 ± 0.59
TTACAAAAATGTGGTTGTACACAAACAAAAAAAATA [XGTACX_site8506] | 8.84 ± 0.24

Sequence | gcPBM binding intensity (ln)
AAAATTTAATATAATGCACACATAAAAAAAAAAAAT [CACACA_site8425] | 8.905 ± 0.007
TATAATATAATATATGCACACAAATATGTATATATG [CACACA_site8664] | 8.065 ± 0.049
AACTATATATAACTAGTGCAAAGACAATATTTTAAA | 8.57 ± 0.33
TTCTTTAAAATAAATTGTACTAACATATATATATAT [XGTACX_site6045] | 10.1 ± 0.3
TTGTTTATTTTTTATTACTATAAAGATGTTATATAT [CACACA_negctrl_site1506] | 8.59 ± 0.43
ATAATATCTTTATGTGTGCACATATATATATATATA | 10.1 ± 0.38
TATATAAATATATATGTACACACATATACATGTTGA [CACACA_site9022] | 8.31 ± 0.28
TTTTTTTTTGTTTACACACCCAAATCACATACATAT [CACACA_site4052] | 8.75 ± 0.52
AAAATAAAAATACACATTTTTTTTTTTTTTTTTTTT [TGCATGCA_negctrl_site515] | 8.88 ± 0.18
TTTTTTTTTTTTTTTGCACACTTGATTTGAGCTTAT [CACACA_site4042] | 8.34 ± 0.4
AAAAAAAACAGACACACACACATAAATATATATAAA [CACACA_site148] | 8.78 ± 0.64
TAAATAATTTATAAGTGTACTATTATTGCACGAATA [XGTACX_site7715] | 9.13 ± 0.69
CATTAGGTCTTTTGTACATGCAAGTGTGTGCGTAAA [TGCATGCA_site255] | 9.11 ± 0.23
ATGATTTTTTCTGTATGTACATAAAAATAAAATTCT [XGTACX_site5698] | 8.48 ± 0.33
TATGTGTAATATTTTTGTACAGAAAAAAAAAAAAAA [XGTACX_site7075] | 8.59 ± 0.54
AAAAAAAAAAAAAACACACACATGCACATCATATTA [CACACA_site4467] | 8.73 ± 0.36
AAAAAAAAAATTAAAACATGCATAAATAAATATATT [TGCATGCA_site866] | 8.73 ± 0.37
ATATTTTTATTAGTAGTGCAATTTAGTGTATATATA [GTGCAC_site9542] | 8.81 ± 0.071
TCATTTCACAGACACACACACACAATATATTTCCTT [CACACA_site9295] | 8.86 ± 0.48

Sequence | gcPBM binding intensity (ln)
AAAAAAAAAAAATATACACACTAATATATTTTTTTA [CACACA_site4604] | 8.31 ± 0.59
TATTTAAAAAGAAAAAAAAAAAAAAAAATACATATA [CACACA_negctrl_site164] | 8.25 ± 0.45
TATATACGCAAACACACACACACATACACCCACATA [CACACA_site1724] | 8.59 ± 0.44
TATTAAATTTATCGGAGTACATTTAAATGTATATAC [XGTACX_site7975] | 8.66 ± 0.37
TATTACTATGTTATAACTTTTTTAAACGTGATCATA [TGCATGCA_negctrl_site128] | 8.34 ± 0.51
TGACTGTAGATATTTTGTACATAACCTAATATATAT [XGTACX_site970] | 8.44 ± 0.36
TAGTAGTTATCACTAACATGCAATAATATTATTTAA [TGCATGCA_site161] | 8.51 ± 0.38
CGTATAAATATACGTGCATGTAACTTTTTCTATATT [TGCATGCA_site981] | 8.98 ± 0.23
CTATTTATTTTTGATGCATGCCAAATATAGAAAAAA [TGCATGCA_site368] | 9.28 ± 0.26
TTATGTACAATTTCTTCTTTCTTTTTTCCTAAAGAC [CACACA_negctrl_site1193] | 8.56 ± 0.45
TTTTTTTTTTTTTTTTGTACACATAATATGAATAAT [XGTACX_site2661] | 8.34 ± 0.37
ATAACATATATATATACACACACATATATATATGAA [CACACA_site7983] | 8.45 ± 0.34
TACAGTTCAATGAAGGTGCAATTAATATATAAAATA | 8.84 ± 0.071
ATAATATAATACGAAGGTACACATTTTCTTAATATA [XGTACX_site7947] | 8.35 ± 0.32
ATATATTTTTTGAATACACACATATTATAGGTAATA [CACACA_site6709] | 8.33 ± 0.45
TTTTTTTTTCTTTTCAAACACACAATTGGTATATAT [CACACA_site3321] | 8.62 ± 0.4
ACTTATAAAAACATATACCCCATCGCATTTTTTCCA [XGTACX_negctrl_site177] | 8.73 ± 0.44
TGTAATATAAAATTTTGTACTCAAAAATTTATATAT [XGTACX_site3252] | 8.18 ± 0.23
AATTTTTTATATGTCACACATTTATTATTATTATTA [CACACA_site4198] | 8.55 ± 0.38
